According to publication PMC12040169 (PLOS Biology, 2025):
This is one part of the list.

These compounds were tested on T1, C. trachomatis L2/434/Bu expressing GFP (CTL2-GFP). Details: total inclusion area; 28.5 h, 10 µM; inhibitor.
T1 construct: L2/434/Bu GFP intracellular growth in HeLa cells
Set-up: species or system HeLa; C. trachomatis total inclusion area by high-content imaging, normalised to DMSO
How it was run: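 Following bulk GFP and resorufin fluorescence reads, infected cells were fixed, Hoechst-stained and imaged on a high-content platform. Inclusion total area and number per well served as growth proxies; nuclei counts indicated host viability. MICs were derived as for the fluorescence assay.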

Structure (SMILES)	% of control remaining
O=C1COc2ccccc2C/C=C/CC2(CCN(C(=O)CCn3ccnc3)CC2)CN1 [CBK292131]	111.457
Nc1ncnc2c1cnn2[C@H]1C[C@@H](O)[C@@H](CO)O1 [CBK201325]	104.268
CC(C)(C)NC(=O)CN1CCC(c2ccc(F)cc2)CC1 [CBK283629]	95.921
Cc1cc(CN(C)Cc2c(C)nc3c(C)cccn23)n[nH]1 [CBK281716]	100.277
CC(=O)c1ccc(O)c2ncccc12 [CBK015821]	97.8541
Cc1cc(C(=O)NCc2ccnc(N3CCOCC3)c2)c(C)n1-c1cccc(Cl)c1 [CBK298301]	91.6223
COc1ccc(-c2cc(C(=O)NCc3ccc(N)cc3)cnc2-c2cccc(C)c2)cc1 [CBK036728]	119.917
Cc1cc(C)c(S(=O)(=O)Nc2ccc(S(=O)(=O)Nc3ccc(Cl)cc3Cl)cc2)c(C)c1 [CBK266022]	63.7914
Cc1ccc(C2(CN3CCN(Cc4cnn(C)c4)CC3)CC2)cc1 [CBK282480]	115.156
CN(C)CCCNc1ccc(-c2n[nH]c(=O)c3ccccc23)cc1[N+](=O)[O-] [CBK266200]	124.371
CC(C)(C)OC(=O)NCCc1ccc(Nc2cc(-c3ccsc3)ncn2)cc1 [CBK090958]	82.966
COc1cccc(CN2CCC3(CC2)c2[nH]c4ccc(OCc5ccccc5)cc4c2CCN3C=O)c1 [CBK040462]	90.7189
CCc1nc2c(OCCOc3ccccc3)cccn2c1N(C=O)CC(=O)N(C)C [CBK147510]	98.5386
CC(C)N1CCC(CNC(=O)Cn2ccc3ccc(F)cc32)CC1 [CBK282571]	114.329
c1coc(CNc2ncc(-c3ccc(N4CCOCC4)cc3)n3ccnc23)c1 [CBK091220]	58.8764
c1cnc(-c2nnn[nH]2)c(-c2ccc(COc3ccc4c(c3)OCO4)cc2)n1 [CBK050812]	92.1926
Cc1cc(O)c(C(C)C)cc1N1C(=O)c2ccc([N+](=O)[O-])cc2C1=O [CBK115323]	101.814
Cn1c(=O)c2c(nc(NCc3ccc4c(c3)OCO4)n2Cc2cccc(Cl)c2)n(C)c1=O [CBK074359]	90.6982
OC(COc1ccccc1F)CSc1nc(NC2CC2)c2ccccc2n1 (centres unmarked) [CBK297902]	82.7612
CCOC(=O)c1c(NC(=O)NCc2cccnc2)sc2c1CCC2 [CBK307585]	67.5294
COc1cccc(OCC(=O)Nc2ccccc2C(=O)O)c1 [CBK286819]	103.329
O=C(CO)N1CC2(CCN(CCS(=O)(=O)c3ccccc3)CC2)c2ccccc21 [CBK131505]	90.9661
COc1cc(-c2ccc(Nc3cccnc3)nc2)cc(OC)c1OC [CBK037704]	148.628
CCc1nc2ccc(NC(=O)CCCc3ccncc3)cc2[nH]1 [CBK283268]	84.3141
COc1ccc(C2OCCN2C(C)=O)cc1 (centres unmarked) [CBK004536]	106.999

Structure (SMILES)	% of control remaining
COc1ccc(C(C)C)cc1-c1cncc(N(C)CCN(C)C)n1 [CBK065364]	79.7919
CC(C)OC(=O)c1nnn(-c2nonc2N)c1CN1CCCCCC1 [CBK027601]	94.34
FC(F)(F)c1cccc(CN2CCN(CCc3ccccc3)CC2)c1 [CBK126421]	92.62
NC(=O)[C@H]1C[C@@H](O)[C@H](O)[C@H]2[C@@H]1S/C(=N\c1ccccc1)N2Cc1cccs1 [CBK288944]	100.375
Cc1c(-c2cc(-c3cnn(C)c3C)[nH]n2)cnn1C [CBK288013]	115.34
COc1ccc(S(=O)(=O)N2CCC(C(=O)N(C)C(c3cnccn3)c3ccccc3C)CC2)cc1 (centres unmarked) [CBK060210]	85.1344
O=C(O)c1cc(NC(=O)c2ccccc2[N+](=O)[O-])cc(C(=O)O)c1 [CBK262135]	106.667
CCn1c(C(C)C)nc2cc(NC(=O)Cc3c(C)noc3C)ccc21 [CBK281527]	98.1268
CCn1nc(C)c(C(C)NC(=O)c2ccn(C(F)F)n2)c1C (centres unmarked) [CBK281534]	93.226
CC(C)c1ccc(/C=C/C(=O)NCc2ccc(S(N)(=O)=O)cc2)cc1 [CBK161511]	102.499
Nc1[nH]ncc1-c1nnc(Nc2ccc3c(c2)OCO3)o1 [CBK288537]	111.645
COc1ccc(C(C)C)cc1-c1cncc(NCC(c2cccnc2)N(C)C)n1 (centres unmarked) [CBK037132]	102.314
CNC(=S)NCc1ccncc1 [CBK020033]	63.5931
COc1ccccc1N(CC(O)CN1C(C)CCCC1C)S(=O)(=O)c1ccccc1 (centres unmarked) [CBK265585]	102.731
COCCn1c(CN2CCC(Cc3ccccc3)CC2)nc2c1c(=O)n(C)c(=O)n2C [CBK269378]	94.605
COCCNC(=O)N[C@H](Cc1ccccc1)C(=O)O [CBK286667]	96.5056
NC(=O)CN1C(=O)CO[C@H]2CN(Cc3cnc4ccccc4c3)C[C@H]21 [CBK289242]	113.192
CCOc1ccc(C)cc1S(=O)(=O)NCCc1c(C)[nH]c2c(Cl)cccc12 [CBK268859]	107.77
CC(C)c1ccc(C(C)NC(=O)Cn2cc(C(=O)Nc3ccc(F)cc3)ccc2=O)cc1 (centres unmarked) [CBK286049]	102.363
CC(C)(C)OC(=O)N1CCN(c2cc(NCc3ccccc3)ncn2)CC1 [CBK000137]	89.2488
Cc1nccn1CC1(O)CCN(C(=O)CCc2ccccc2F)CC1 [CBK284689]	116.828
CCOc1ccc(-c2nnn(CC(N)=O)n2)cc1 [CBK068283]	88.6408
Nn1c(SCC(=O)Nc2ccc3c(c2)OCO3)nnc1-c1ccccn1 [CBK267550]	98.7193
CCOC(=O)c1sc(-c2ccccc2)nc1C [CBK074204]	85.8756
Cn1ccc(NC(=O)c2cccc(S(=O)(=O)N3CCCC3)c2)n1 [CBK306032]	50.2602
